# Out of some 43,000 compounds screened, about 200 (0.47%) were called active. Not shown: some 12% with an inconclusive outcome. The call rests on the fitted dose curve; in most records, active means well fitted cell-killing curve with a large enough effect; inconclusive means small, poorly fitted or top-dose-only effect, or effect the other way; inactive means flat fitted curve, though single readings scatter. The list shows a part of the results.
# Assay: Cell viability qHTS assay in S16 Pmp22-F2sN cells; further: nearly all actives have a fitted effect of over 65% in size
# Settings: S16 Pmp22-F2sN Schwann cells viability, CellTiter-Glo, 24 h; series mostly up to 57.5 µM; activity change, negative = cytotoxicity: at the top concentration
# Outline: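 Viability was measured by CellTiter-Glo luminescence (15 min, room temperature). This followed 24 h at 37 °C of compound exposure (23 nL pin transfer) in S16 Pmp22-F2sN Schwann cells, 500-1,000 per well.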
# On the % scale 0 is the no-effect control and ±100 the full control effect.
row,SMILES,"activity change, negative = cytotoxicity"
1,Nc1cc(=O)nc(SCC(=O)Nc2ccc(F)cc2)n1-c1ccccc1Cl,inactive: -4.08%
2,COc1ccc(C)cc1NC(=O)C1CCN(S(=O)(=O)c2ccc3[nH]c4c(c3c2)CCCCC4)CC1,inactive: -0.527%
3,O=C(COc1ccc([N+](=O)[O-])cc1)NCC1(N2CCOCC2)CCCCC1,inactive: 10.4%
4,Cc1ccccc1Nc1c(-c2ccc(Cl)s2)nc2c(C)cccn12,inactive: -4.6%
5,COc1ccc(-n2ncc(C(=O)N3CCN(c4ncccn4)CC3)c2C2CCN(C(=O)OC(C)(C)C)CC2)cc1,inactive: 7.1%
6,CC(C)CC(=O)Nc1ccc(S(=O)(=O)Nc2cc3c(cc2N2CCOCC2)n(C)c(=O)c(=O)n3C)cc1,inactive: 7.29%
7,O=C(CCc1cn(Cc2ccccc2Cl)c2ccccc12)NC1CCCCC1,inactive: -14.6%
8,Cc1c(C(=O)N2CCC(C)CC2)c(S(=O)(=O)NCc2ccc(Br)cc2)c(C)n1C,inactive: 2.31%
9,CCCCc1nc2ccccc2n2c(-c3ccc(OC)cc3)c3c(=O)n(C)c(=O)n(C)c3c12,inactive: -0.294%
10,COc1cc2c(cc1OC)C(COc1ccc(F)cc1)N(C(=O)c1ccc(S(=O)(=O)N3CCCC3)cc1)CC2 (stereo not given),inactive: 1.2%
11,COc1cc(C2CC(=O)N(Cc3ccc(F)cc3)c3ccccc3S2)cc(OC)c1OC (stereo not given),inactive: -22.2%
12,COC(=O)c1cc(NC(=O)[C@H](CCS(C)(=O)=O)N2Cc3ccccc3C2=O)cc(C(=O)OC)c1,inactive: 7.99%
13,CCc1ccc(-c2nc3cc(NC(=O)c4cc5ccccc5cc4OC)ccc3o2)cc1,inactive: 6.54%
14,CCc1cc(C(=O)NC(C)c2ccccc2)no1 (stereo not given),inactive: -3.85%
15,Cc1cccc(NC(=O)c2c(C)cc(C)nc2SCC(=O)Nc2c(C)cc(C)cc2C)c1,inactive: -11.7%
16,CC(=O)Nc1ccc(NC(=O)c2ccc(COc3ccc(Cl)cc3Cl)o2)cc1,inactive: -2.2%
17,CCOc1ccc(-c2cc(-c3nc(-c4cc(OC)c(OC)c(OC)c4)no3)[nH]n2)cc1Cl,inactive: 15.4%
18,Cc1ccc(-n2nc(CO)c(C(=O)NCc3cccs3)n2)cc1C,inactive: -8.87%
19,COC(=O)c1ccccc1NC(=O)c1ccc2nc(Cc3ccccc3)oc2c1,inactive: 2.66%
20,CCOC(=O)c1ccc(NC(=O)CSc2nnc(CNC(=O)c3ccc(OC)cc3)n2CC)cc1,inactive: 12.8%

row,SMILES,"activity change, negative = cytotoxicity"
1,Cn1c(=O)oc2cc(S(=O)(=O)N3CCC(C(=O)NCc4ccc(F)cc4)CC3)ccc21,inactive: 0.473%
2,COc1ccc(Nc2nc3cc(Cl)c(Cl)cc3n3cnnc23)cc1Cl,inactive: -5.31%
3,O=C(Nc1nnc(S(=O)(=O)N2CCCC2)s1)c1ccccc1Br,inactive: -8.39%
4,COc1cc(N2C(=O)CSC23C(=O)N(Cc2ccc(C)cc2)c2ccccc23)cc(OC)c1OC (stereo not given),inactive: -4.71%
5,Cc1ccc2c(c1)N(C(=O)CCC(=O)NCc1cccs1)CCO2,inactive: 2.11%
6,Cc1ccc(C)c(CN2C(=O)c3ccccc3S(=O)c3ccc(C(=O)N4CCN(c5ccccc5F)CC4)cc32)c1 (stereo not given),inactive: 11.7%
7,COc1ccc(N2CCN(S(=O)(=O)c3ccc4c(c3)CCCN4C(C)=O)CC2)cc1,inactive: -7.12%
8,CC1CCN(CCCNC(=O)c2cn(C)c3ccc(S(=O)(=O)N(C)C4CCCCC4)cc3c2=O)CC1,inactive: 14.2%
9,COc1cc2c(cc1OC)C(COc1ccc(C(C)C)cc1)N(C(=O)c1ccc(S(=O)(=O)N3CCCC3)cc1)CC2 (stereo not given),inactive: 1.62%
10,CCOC(=O)c1c(NC(=O)c2cc(=O)c3cc(Cl)ccc3o2)sc(C)c1C,inactive: 1.41%
11,COc1ccc(N2C(=O)C(CC(=O)Nc3ccc(Cl)cc3)N(Cc3ccc4c(c3)OCO4)C2=O)cc1 (stereo not given),inactive: -11.9%
12,COc1ccc(NC(=O)CCc2nc3cccnc3n2-c2ccccc2)c(OC)c1,inactive: -0.144%
13,CCN1CCN(C(c2ccc(C)cc2)c2sc3nc(-c4ccco4)nn3c2O)CC1 (stereo not given),inactive: 0.191%
14,CCOc1ccc(CCNC(=O)CSc2nnnn2-c2ccccc2Cl)cc1OCC,inactive: -2.56%
15,COCCn1c(=N)c(C(=O)NCC2CCCO2)cc2c(=O)n3ccccc3nc21 (stereo not given),inactive: 14.2%
16,Cc1ccc(C)c(N2CCN(C(=O)CN3CCSc4ccccc43)CC2)c1,inactive: 6.71%
17,Cc1cccc(-c2nc(SCc3cc(=O)c4cccc(F)c4[nH]3)n[nH]2)c1,inactive: -26.3%
18,O=C(NCCS(=O)(=O)N1CCN(c2ccccc2F)CC1)c1ccccc1C(F)(F)F,inactive: -16%
19,COc1cccc(CNC(=O)Cn2c(=O)cc(C(F)(F)F)c3c(C)nn(C)c32)c1OC,inactive: -6.88%
20,CCOC(=O)c1ccc2c(c1)sc1nc(-c3ccc(OCC)cc3)cn12,inactive: 1.3%

row,SMILES,"activity change, negative = cytotoxicity"
1,CCN(CC)CCCNC(=O)c1c2c(nc3ccccc13)C(=O)N(C1CCCCC1)C2,inactive: 3.57%
2,Cc1c(-c2ccc(Cl)cc2)c(=O)oc2c(CN3CCN(C)CC3)c(O)ccc12,inactive: -7.94%
3,Cc1ccc(C)c(N(C)C(=O)CCNC(=O)Cn2cnc3ccccc3c2=O)c1,inactive: 3.31%
4,CC(C)CC(=O)Nc1nnc(S(=O)(=O)N(C)c2ccc(Cl)cc2)s1,inactive: -1.85%
5,CC(C)c1nn2c(=O)cc(COC(=O)c3cccc(NC(=O)c4ccccc4F)c3)nc2s1,inactive: 6.75%
6,CCC1Oc2ccc(C)cc2N(CC(=O)NCc2ccc(F)cc2)C1=O (stereo not given),inactive: -0.177%
7,O=C(Nc1cccc(Cl)c1)C(Cc1ccccc1)n1cccc1 (stereo not given),inactive: 12.8%
8,CC1CCc2c(sc3nc(-c4cc5ccccc5oc4=O)nc(Cl)c23)C1 (stereo not given),inactive: 6.44%
9,CCOC(=O)C1CCCN(C(=O)c2cc3c(Cl)nc4ccccc4c3s2)C1 (stereo not given),inactive: 7.91%
10,Cc1c(C(=O)N2CCCCCC2)c(S(=O)(=O)Nc2ccc(OC(F)(F)F)cc2)c(C)n1C,inactive: -10.9%
11,O=C1CC(c2ccccc2)Cc2[nH]c(=O)c(C(=O)Nc3ccc(F)cc3)cc21 (stereo not given),inactive: 4.55%
12,CCOc1ccc(CCNC(=O)CCCc2nnc3n(CCCOC)c(=O)c4sccc4n23)cc1,inactive: 21.5%
13,CCOC(=O)c1ccc(NC(=O)CSc2cc(-c3ccccc3)nc(C)n2)cc1,inactive: 4.14%
14,CC(=O)N1CCN(C(=O)C(=O)Nc2c3c(nn2-c2ccc(Cl)cc2)CSC3)CC1,inactive: -1.91%
15,CCOc1ccccc1-c1noc(CSc2nnc(-c3ccncc3)n2-c2ccc(F)cc2)n1,inactive: 6.08%
16,COc1ccc(-c2nnc(SCC(=O)N3CCCCC3)o2)cc1,inactive: 0.892%
17,O=C(COc1ccccc1)Nc1c(C(=O)N2CCN(c3ccc(F)cc3)CC2)oc2ccccc12,inactive: 3.12%
18,CC1CCN(C(=O)CN2c3ccc(Br)cc3-c3ccccc3S2(=O)=O)CC1,inactive: -9.17%
19,CCOc1ccc2c(c1)c(=O)c(S(=O)(=O)c1ccc(CC)cc1)cn2CC,inactive: -10.2%
20,CCc1ccc(OCC(=O)Nc2cc3oc4ccccc4c3cc2OC)c(Br)c1,inactive: -8.71%

# Source: PubChem BioAssay AID1508642 (National Center for Advancing Translational Sciences (NCATS), 2021)
